Our source for the viability, T/C and IC50 values is PubChem BioAssay AID1845207 (Molecular Pharmacology Branch, DTP, NCI, 2023).

This experiment has as its system NCI-H1876 tumor spheroid viability. Description: Anticancer human tumor NCI-H1876 cell line growth inhibition.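 For all read-outs here: spheroids exposed to compounds for seven days before the viability read.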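 For viability, T/C: percent of DMSO vehicle control viability so 100% = vehicle.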 As to conditions: spheroids with HUVEC and MSC; for viability, T/C: stronger effect = lower value; for IC50: compound alone. The text has this: Multicellular complex tumor spheroid response to DNA repair inhibitors in combination with DNA-damaging drugs
This study explores the anticancer activities of DNA-damaging drugs and inhibitors of DNA damage repair, both as single agents and in combinations. Complex tumor spheroids comprised of malignant cells, endothelial cells and mesenchymal stem cells served as an in vitro model for human solid tumors. This model system incorporates physiologically relevant features and patient-derived or established malignant cell lines with clinically relevant genetic alterations from many tumor types. Twenty-six patient-derived or established malignant cell lines were evaluated representing sarcoma, melanoma, small cell lung cancer (SCLC), non-small cell lung cancer (NSCLC), as well as bladder, ovarian and pancreatic cancers. The concentration ranges selected for each drug and investigational agent were based upon clinically achievable concentrations if the clinical Cmax of the agent was known.
Compounds. The drugs and compounds olaparib (NSC753686), talazoparib (NSC767125), berzosertib (NSC777718), elimusertib (NSC800525), nedisertib (NSC802822), VX-984 (NSC792969), AZD-1390 (NSC803789), temozolomide (NSC362856), topotecan (NSC609699), trabectedin (NSC813783), staurosporine (NSC755774), and gemcitabine (NSC613327) were obtained from the National Cancer Institute (NCI) Developmental Therapeutics Program Chemical Repository. The FDA-approved anticancer drug set is available from the Developmental Therapeutics Program at https://dtp.cancer.gov/organization/dscb/obtaining/available_plates.htm. […] The stock solutions were prepared in dimethyl sulfoxide (DMSO, Sigma-Aldrich, St. Louis, MO, cat. D2650) at 400-fold the tested concentration and stored at -70 degrees C. Prior to their use, the stock solutions were diluted in fresh medium and the final DMSO concentration in the assay was 0.25% (v/v). All drugs and investigational agents were tested over a range starting from a high concentration at or near the clinical Cmax and decreasing in half-log increments. If the clinical Cmax for an agent had not been determined, the highest concentration tested was 10 microM.
Cell Lines. The patient-derived cancer cell (PDC) lines: 156681-154-R-J1-PDC, 283228-195-R-J1-PDC, 287954-098-R-J1-PDC, 292921-168-R-J2-PDC, 349418-098-R-PDC, 425362-245-T-J1-PDC, 556581-035-R-J1-PDC, and BL0293-F563-PDC were received from the NCI Patient-Derived Models Repository (PDMR, https://pdmr.cancer.gov). The established cell lines HS-SY-2 (RRID:CVCL_8719), MPNST, and SYO-1 (RRID:CVCL_7146) were obtained from the Sloan Kettering Institute. The alveolar soft parts sarcoma cell line ASPS-1 (RRID:CVCL_S738) was established at the NCI and grown from internal seed stocks. The following established cell lines were purchased from the American Type Culture Collection (ATCC, Manassas, VA): G-401 (ATCC, cat. CRL-1441, RRID:CVCL_0270), SW982 (ATCC, cat. HTB-93, RRID:CVCL_1734), VA-ES-BJ (ATCC, cat. CRL-2138, RRID:CVCL_1785), NCI-H719 (ATCC, cat. CRL-5837, RRID:CVCL_1582), NCI-H196 (ATCC, cat. CRL-5823, RRID:CVCL_1509), NCI-H841 (ATCC, cat. CRL-5845, RRID:CVCL_1595), NCI-H1618 (ATCC, cat. CRL-5879, RRID:CVCL_1480), NCI-H1876 (ATCC, cat. CRL-5902, RRID:CVCL_1503), DMS 114 (ATCC, cat. CRL-2066; RRID:CVCL_1174), NCI-H211 (ATCC, cat. CRL-5824; RRID:CVCL_1529), and SW 1271 (ATCC, cat. CRL-2177, RRID:CVCL_1716). The small cell lung cancer cell line COR-L88 was purchased from Sigma-Aldrich (cat. 92031917-1VL, RRID:CVCL_1141). The non-small cell lung cancer cell lines NCI-H226 (RRID:CVCL_1544) and NCI-H322M (RRID:CVCL_1557) were established at the NCI and grown from internal seed stocks. Pooled donor human umbilical vein endothelial cells (HUVEC, Lonza, cat. CC-2519) and human mesenchymal stem cells (hMSC, Lonza, cat. PT-2501) were purchased from Lonza (Walkersville, MD).
Cell Culture. All cells were maintained in an incubator at 37 degrees C and 5% CO2 with 95% humidity. […]

SMILES strings stand for the structures. Not every entry of the source has a single result; some have several. They are shown here; other results are not. The source may hold further records. The records of an entry are repeats across runs, samples, wells, individuals or studies. Additions like (4×) say how often a value occurs here. A date in brackets names the month of the test.

Consider `Cn1nnc2c(C(N)=O)ncn2c1=O`, for which the viability, T/C by setting is: (compound alone 31.6 µM) 98, 79.7, 98.1, 98.3, 54.1, 101, 12.1, 105, 95.6, 92.5%; (compound alone 100 µM) 67.5, 60.7, 59.6, 65.3, 63.8, 70, 3.38, 72.3, 66.5, 46.7%. As to `CC[C@@]1(O)C(=O)OCc2c1cc1n(c2=O)Cc2cc3c(CN(C)C)c(O)ccc3nc2-1`, the viability, T/C (compound alone 0.00949 µM) was 40.6, 38.5, 35.8, 39.1, 43.7% [2019-11] and 24, 19.5, 18.2, 16.4, 16.1% [2019-12]. For `COc1ccc([C@@H](O)c2cc(-c3ncnc4cc(N5CCOCC5)ccc34)c(F)cc2Cl)nn1`, the viability, T/C (compound alone 10 µM) was 4% [2019-11] and 33.2%, 16.8% [2019-12]. In the case of `COc1cc2c(cc1O)CCNC21CSC2c3c(OC(C)=O)c(C)c4c(c3C(COC1=O)N1C(O)C3Cc5cc(C)c(OC)c(O)c5C(C21)N3C)OCO4` (stereo not drawn), the viability, T/C (compound alone 0.0003 µM) was 4.54, 27.7 (2×), 20.6, 27.6, 40.6, 27.5, 17.4, 14.3, 32.9%. Turning to `Cn1ncnc1[C@H]1c2n[nH]c(=O)c3cc(F)cc(c23)N[C@@H]1c1ccc(F)cc1`, the viability, T/C (compound alone 0.949 µM) is 33.8%, 11.2% [2019-11] and 6.17% [2019-12].

On to `Cc1cc(C)c(CNC(=O)c2cc(-c3ccc(CN4CCOCC4)cc3)cc3c2cnn3C2CCCC2)c(=O)[nH]1`, for which the IC50 is 838 nM, 902 nM [2019-11] and > 10 µM [2019-12]. Turning to `CC(C)n1c(=O)n(C)c2cnc3cc(F)c(-c4ccc(OCCCN5CCCCC5)nc4)cc3c21`, the IC50 is 394 nM [2019-11] and > 10 µM [2019-12].
